Results on 48 compounds are retold here after PubChem BioAssay AID1508642 (National Center for Advancing Translational Sciences (NCATS), 2021).

Hit rate of the full screen: of about 43,000 compounds, about 200 (0.47%) were called active. Not shown: some 12% with an inconclusive outcome. The call rests on the fitted dose curve; in most records, active means well fitted cell-killing curve with a large enough effect; inconclusive means small, poorly fitted or top-dose-only effect, or effect the other way; inactive means flat fitted curve, though single readings scatter. This is one part of the list.
On the % scale 0 is the no-effect control and ±100 the full control effect.

The experiment can be described thus: Cell viability qHTS assay in S16 Pmp22-F2sN cells. Further: nearly all actives have a fitted effect of over 65% in size. As to conditions: S16 Pmp22-F2sN Schwann cells (luciferase reporters placed in the Pmp22 gene) viability, CellTiter-Glo, 24 h; series mostly up to 57.5 µM; activity change, negative = cytotoxicity: at the top concentration. The method in brief: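 Luminescence from CellTiter-Glo, read by CCD camera after a 15 min room-temperature incubation, served as the viability signal. Reporter Schwann cells (S16 Pmp22-F2sN) had been treated with pin-transferred compounds for 24 h at 37C.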
On the technique in general: qHTS replaces the single test concentration by a dilution series.
For `O=C(c1cnc(N2CCCCC2)c2ccccc12)N1CCN(c2ccccc2F)CC1`, the “activity change, negative = cytotoxicity” value is inactive: 1.53%. The figure for `CCCSc1oc(-c2cccs2)nc1S(=O)(=O)c1ccc(Cl)cc1` is inactive: -0.172%. For `Cc1ccc2c(c1)c1c(c(=O)n(Cc3ccccc3)c(=O)n1Cc1cccc(C(F)(F)F)c1)n2C`, the “activity change, negative = cytotoxicity” value is inactive: 1.68%. With `Cc1ccc(CNc2nc3ccccc3c3nc(-c4cccc(C)c4)nn23)cc1`, the “activity change, negative = cytotoxicity” value is inactive: -1.36%. The figure for `COc1ccc(Cn2c(CNS(=O)(=O)c3ccc4c(c3)CCCC4)nc3cccnc32)cc1` is inactive: -7.09%; for `CCOc1ccc(C(=O)NCCc2sc3nc(-c4ccc(Cl)cc4)nn3c2C)cc1OCC` it is inactive: -1.39%; for `O=C(NCCc1ccc(Cl)cc1)c1ccc(Cn2c(=O)c3cccn3c3cccnc32)cc1` it is inactive: -8.34%. The value for `c1csc(C2=NC(c3ccncc3)=Nc3ccccc3N2)c1` was inactive: -4.09%; that for `O=C(CSC1=Nc2ccccc2N=C(c2ccc(F)cc2)C1)NCc1ccccc1` was inactive: 20%; that for `CC(=O)N1CCc2cc(CNS(=O)(=O)c3ccc(Br)s3)ccc21` was inactive: -0.138%. The value for `Cc1cc2oc(=O)c(CC(=O)O)c(C)c2c2occ(-c3ccc(F)cc3)c12` was inactive: 4.67%; that for `Cc1ccc(N2CC(NC(=O)c3ccc(S(=O)(=O)N4CCOCC4)cc3)CC2=O)cc1C` (stereo not drawn) was inactive: 8.13%; that for `Cc1cccc(CNC(=O)C2CCN(c3nnc(-n4c(C)ccc4C)s3)CC2)c1` was inactive: 0.226%.

As to `COc1ccc(CCNC(=O)CCCn2c(=O)c3ccccc3n(Cc3ccc(F)cc3Cl)c2=O)cc1OC`, the “activity change, negative = cytotoxicity” value was inactive: -1.56%. The value for `O=C(c1ccc2c(c1)OCCO2)N(Cc1cccnc1)c1nc2c(F)cccc2s1` was inactive: -8.05%; that for `Cc1cccc(-c2noc(CN(C(=O)c3ccccc3Cl)C(C)C)n2)c1` was inactive: -9.06%. As for `CCCn1c2ccccc2c2cnn(CC(=O)N3CCC(C(=O)OCC)CC3)c(=O)c21`, the “activity change, negative = cytotoxicity” value was inactive: 11.9%. Regarding `Cc1ccc(CNc2nc3ccccc3n3c(C)nnc23)cc1`, the “activity change, negative = cytotoxicity” value is inactive: -2.47%. The figure for `O=C(Nc1cccc(NC(=O)c2ccc(Br)o2)c1)c1ccccc1` is inactive: -4.11%; for `COc1cccc(C2c3c(oc4ccc(C)cc4c3=O)C(=O)N2CCCN2CCOCC2)c1OC` (stereo not drawn) it is inactive: -8.93%; for `Cc1cccc(-c2noc(-c3cccnc3NCc3ccco3)n2)c1` it is inactive: 12.1%.

For the compound `Cc1ccccc1-n1cc(-c2ccccc2)nc1SCC(=O)Nc1ccc(F)cc1`, the “activity change, negative = cytotoxicity” value was inactive: 6.5%. The figure for `COc1ccc(-n2c(=O)c3c4c(sc3n(Cc3cc(C)ccc3C)c2=O)CN(C(C)=O)CC4)c(OC)c1` is inactive: 22.7%; for `Cc1ccc(Sc2c(C)nn(C(=O)COc3ccc(F)cc3)c2C)cc1` it is inactive: -3.53%. The figure for `O=C(NCCN1CCN(c2ccccc2)CC1)Nc1ccccc1Br` is inactive: 1.19%; for `CC(=O)N1CCCc2cc(S(=O)(=O)N(C)CC(=O)Nc3ccc(C)cc3C)ccc21` it is inactive: -2.33%.

As to `Cc1noc(Cn2c(=O)c3ccccc3n(CC(=O)Nc3cccc(Cl)c3C)c2=O)n1`, the “activity change, negative = cytotoxicity” value is inactive: -8.85%. The figure for `CC(C)c1ccc(OCC(=O)Nc2c(Cl)ccc3nsnc23)cc1` is inactive: -13.7%; for `N#Cc1nc(/C=C/c2ccc(F)cc2)oc1N1CCN(c2ccccc2)CC1` it is inactive: 1.6%. Regarding `COc1cccc(C2CC(=O)Nc3c2c(=O)nc2c(C)cccn32)c1` (stereo not drawn), the “activity change, negative = cytotoxicity” value was inactive: -7.77%. The value for `COc1cccc(CNC(=O)CSc2nc3ccccc3nc2Cc2ccc(C)cc2)c1OC` was inactive: 10.8%; that for `CCOC(=O)CNC(=O)c1cc2c(=O)n3cccc(C)c3nc2s1` was inactive: -0.116%; that for `Cc1ccc(NC(=O)CCNS(=O)(=O)c2ccc3c(c2)CCN3C(=O)C2CC2)c(Cl)c1` was inactive: -8.27%. The value for `CCCn1c2ccccc2c2cnn(CC(=O)NCCc3ccc(OCC)c(OCC)c3)c(=O)c21` was inactive: 1.75%; that for `CCCCNC(=O)CCn1c(=O)c2cccn2c2ccc(F)cc21` was inactive: 0.181%. The figure for `CCOc1ccccc1NC(=O)CSc1ncc(S(=O)(=O)c2ccc(C(C)(C)C)cc2)c(=O)[nH]1` is inactive: -2.06%. `O=c1c2cc3c(cc2n(Cc2cccc(Cl)c2)c(=O)n1Cc1nc(-c2ccccc2)no1)OCO3`: the “activity change, negative = cytotoxicity” value was inactive: 3.21%. The value for `COc1ccc(NC(=O)CCNS(=O)(=O)c2cccc3nonc23)c(OC)c1` was inactive: 12.5%; that for `COc1ccc(Nc2ncc(C(=O)Nc3cc(Cl)c(OC)cc3OC)c3ccccc23)cc1` was inactive: 10.8%; that for `CN(C)c1ccc(C(CNS(=O)(=O)c2ccc(F)cc2)N2CCCC2)cc1` (stereo not drawn) was inactive: 5.54%.

With `O=C(Nc1ncc(Cc2ccc(Cl)cc2)s1)c1ccc2c(c1)CC(c1ccccc1)OC2=O` (stereo not drawn), the “activity change, negative = cytotoxicity” value was inactive: 8.62%.

Turning to `COc1cccc(-n2c(-c3ccco3)nc3c(cnn3-c3ccc(C)cc3)c2=O)c1`, the “activity change, negative = cytotoxicity” value is inactive: -16.4%.

As for `CCOc1ccc(NS(=O)(=O)c2ccc3[nH]cc(C(=O)NC4CCCC4)c(=O)c3c2)cc1`, the “activity change, negative = cytotoxicity” value was inactive: 0.327%. The figure for `CCOc1ccc(C(=O)c2cn(Cc3ccc(OC)cc3)c3cc(OC)c(OC)cc3c2=O)cc1` is inactive: 4.96%; for `Cc1noc(Cn2c(=O)c3ccccc3n(CC(=O)Nc3ccc(Cl)cc3)c2=O)n1` it is inactive: 1.16%. Consider `O=C(Nc1cc(Cl)ccc1Cl)C1(c2cccs2)CCOCC1`, for which the “activity change, negative = cytotoxicity” value was inactive: 22.8%. The figure for `CCOc1ccc(NC(=O)CSc2ncc3c(n2)-c2cc(Cl)ccc2N(C)S3(=O)=O)cc1` is inactive: 0.845%. The figure for `CC1=C(C(=O)NCc2ccc(C)cc2)C2(CCCCC2)OC1=O` is inactive: 0.0011%.
